# Whole data set: some 33,000 sequences, median “E-score (-0.5 to 0.5)” near -0.016, cut for the highest 2% near 0.31. Some of the results follow.
# Molecular target: Cst6 (UniProt P40535)
# Assay: PBM E-score (8-mer binding enrichment) (E-score (-0.5 to 0.5)); higher = stronger / more preferred TF binding; most listed sequences are background and not binding sites
# Conditions: protein concentration: 200 nM; construct: GST-DNA-binding domain
# Procedure, shortened: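 Full-length yeast transcription factors or their DNA-binding domains, GST-tagged and expressed with PURExpress, were applied at about 100-200 nM to universal all-10-mer Agilent arrays. These arrays had been made double-stranded by primer extension on fresh or once-stripped slides. Detection used fluorescent anti-GST, normalisation used masliner, and E-scores for ungapped eight-base words pooled with reverse complements came from the Universal PBM Analysis Suite.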
row,Sequence,PBM E-score
1,AATGAGCT,0.0678
2,ATCGCAAC,0.0294
3,AATATGCA,0.00239
4,ATCAGACC,-0.0809
5,GATGTAGC,-0.00911
6,GGAAGTCC,-0.257
7,CGGTAAAG,-0.00808
8,CTGGACCC,-0.357
9,ACGATCTA,-0.0876
10,ACTCAAGC,-0.106
11,GATCGCAC,-0.00655
12,ACTGGTCG,-0.206
13,GACAGCAA,0.0708
14,ATGTTAAA,0.275
15,CATTGCCC,-0.241
16,ACGGATGG,0.0437
17,ACGAGGGC,-0.176
18,GCCTCATA,0.0539
19,AGTAATCC,0.0129
20,AGGGCGAG,-0.273
21,GAAGAGTC,-0.131
22,CCCTGATA,-0.123
23,AATAACGA,0.0145
24,CGATACCC,-0.166
25,AGTGTTCG,-0.00631

row,Sequence,PBM E-score
1,AGACAGGC,-0.22
2,AAGGTCCT,-0.228
3,ATACACGA,0.0465
4,CATACATA,0.27
5,AATCGAGT,-0.0583
6,CGACCACC,-0.192
7,GATGTTTA,0.202
8,ATAATAGA,0.216
9,CCACCACC,-0.122
10,AATTGAAT,0.157
11,CTACCACC,-0.274
12,GTGACCCA,0.0463
13,CGTGCACG,0.207
14,ATCCGCGG,0.0614
15,CAAGCAGG,-0.216
16,ACGGCCAA,0.0138
17,CGTCTCGC,-0.185
18,AGCAACTC,-0.166
19,AATCTGAA,0.12
20,AATCTAGC,-0.182
21,GCATCAGC,0.0302
22,TAGCATCA,0.271
23,TCCCAAAA,0.00905
24,CTCCGTTC,-0.0965
25,CACAGACC,-0.0766

row,Sequence,PBM E-score
1,CACATAGA,0.0738
2,ACAGATCA,0.0817
3,GGCGTGGA,-0.211
4,CACTCTCA,0.053
5,GAAATTAA,0.334
6,CCTTACGA,0.0697
7,ATCTCTAA,0.115
8,TCATAACA,0.311
9,ATTTATCC,0.252
10,TAAAATTA,0.283
11,AGAACCCG,-0.168
12,CATCGACC,0.00362
13,GAATGATA,0.278
14,ACGGCACT,0.352
15,AAAACTCA,0.198
16,CGTGTGAG,0.0162
17,TATGAAGA,0.19
18,GCATTTTA,0.183
19,AAGCAATT,0.188
20,AGATGTGA,0.242
21,GTACCAAC,0.0501
22,ATCGAAAC,0.128
23,GCCTAAAA,-0.123
24,CCTGCGCA,-0.26
25,CAGGCCCA,-0.255

row,Sequence,PBM E-score
1,ACGCTGAC,0.258
2,CTTACGCC,0.193
3,ATCGGGTA,-0.104
4,TACATCGA,-0.00243
5,CCAGTTCG,-0.0928
6,AGGAATCC,-0.132
7,GCTGTTAA,0.198
8,CAGTGACG,0.435
9,ACGCGTTG,0.0742
10,CCGTCCTA,-0.179
11,ACAGCTAT,-0.0639
12,ATCGTGAC,0.255
13,CAATTACC,0.138
14,ATTCTCGA,0.112
15,GCTTAGTA,0.0951
16,CCATAGTA,-0.157
17,AGTGAACG,-0.0226
18,CTGCTACC,-0.0843
19,ACTCCTTG,-0.0804
20,AAATACGA,0.167
21,ACGCTACC,-0.233
22,ATTTTATC,0.24
23,AGAGGCCC,-0.33
24,AGCGATTC,-0.0966
25,GCCAACCC,-0.22

row,Sequence,PBM E-score
1,GAGGTTAA,-0.146
2,CACGAGGC,0.184
3,CGGCAAAA,0.187
4,CGGTCGTA,-0.304
5,GCAAAAGC,0.0455
6,GGGGTCCA,-0.269
7,ACGAGGCA,0.171
8,CAAGGTAG,-0.2
9,GCCATCGA,-0.0885
10,CAGGAGGC,-0.0878
11,AACTAAAC,0.14
12,CGCCGGAG,-0.202
13,ATCTAAAT,0.14
14,CTTCGGTC,0.0701
15,CTTTCGCA,0.00133
16,AGTCTATC,-0.115
17,CCCTTAAG,-0.132
18,GGTGAACC,-0.0708
19,CTCGTGGC,-0.143
20,CCCCGATA,-0.262
21,AACGGCCT,-0.113
22,CCTAAGTA,-0.0781
23,AGTTAGAA,0.0267
24,CCGGTGTA,-0.241
25,CTAAAAGA,-0.0719

row,Sequence,PBM E-score
1,AATAACGC,0.0476
2,TATATTGA,0.135
3,ACAACATC,0.0511
4,ATCCGATC,0.154
5,GCTTATCA,0.0277
6,ATCGAATG,0.218
7,CTATGTAA,0.173
8,CGATCCAA,-0.127
9,AGCACTAT,-0.131
10,CACACTTA,0.178
11,GAGGAGTA,-0.019
12,GCAACGTA,0.209
13,AGTGGCTG,-0.122
14,AGGCCTGA,-0.0753
15,AAATATAC,0.145
16,CGACCAAA,0.205
17,CGTATGGA,0.0331
18,AACTAGTT,0.107
19,GTTCTCCA,-0.162
20,TAGGTGGA,-0.0365
21,CCATATAG,-0.11
22,GGATCATA,-0.0327
23,ATATACCA,0.0653
24,ATTAATGG,0.192
25,GCTGAGTA,-0.255

row,Sequence,PBM E-score
1,ACTCGTAC,-0.148
2,GGCTAACA,-0.0763
3,ATACCGAC,-0.0697
4,CCAACTGG,-0.132
5,ATTAACTA,0.137
6,GCCCGACA,0.00601
7,ACGATGAC,0.387
8,CGCGTCCG,-0.0105
9,AACCGATG,-0.0164
10,ATCTTCCC,0.0395
11,CCAAGATC,-0.12
12,GTCAATCA,0.192
13,AAATGTCT,-0.0179
14,AATGAGCC,-0.0483
15,AAAGCTGC,-0.0537
16,ACCGGGCA,-0.313
17,ATGCCTCG,0.317
18,CATAAGAG,0.0335
19,AGAAGCTC,-0.186
20,AACGGTGG,-0.293
21,AGAGAGGG,-0.278
22,CATGCAGC,-0.058
23,GGAGTGCC,-0.136
24,GTTCTAAA,-0.0506
25,CGGAGTTA,-0.0715

row,Sequence,PBM E-score
1,TCGAGGAA,-0.153
2,CCCCGAGA,-0.221
3,AACACTTG,-0.121
4,GCCTACAA,-0.0676
5,ACGTTTCC,-0.0167
6,CGTCCGCA,0.0467
7,GATGATTA,0.2
8,CGCTCCAA,-0.112
9,CGCTCGTC,-0.00654
10,ACTGCACG,-0.0749
11,GGTTCCAA,0.115
12,ACAACTAG,0.0101
13,AACAGCGC,-0.0479
14,AAGCCTCA,-0.11
15,TCTCCTAA,0.0818
16,ACTCCTCC,-0.251
17,TCGAAAAA,0.259
18,AGGCATGA,0.0538
19,AAACCGTC,-0.0347
20,ACGTAAAC,0.31
21,TACTTCGA,0.186
22,AATGCTAT,0.0889
23,GGGCTAGA,-0.189
24,GAACTCCC,-0.1
25,GGGCCTCA,-0.222

row,Sequence,PBM E-score
1,GGAGCTTA,-0.194
2,ACTTTATC,0.0378
3,AGCTGCAA,-0.171
4,ACCGACTA,-0.178
5,CGATTTGA,0.0282
6,GACCCCGA,-0.255
7,GGGTGGAC,-0.163
8,CAGCGCCC,-0.0102
9,CTAATTGC,0.0224
10,GTCGGCAA,-0.0764
11,CCTGTTGC,-0.169
12,GGGTCTCA,-0.197
13,GGGATAAC,-0.251
14,AATAGGCT,0.0294
15,AAGACCCG,-0.0432
16,CAAATGCC,0.00938
17,CCGAGCGA,-0.108
18,GTGCCTTA,0.2
19,AGTACCTC,-0.0912

# Reference: the supplement of paper PMC3334620
